Laboratory results: PubChem BioAssay AID651820 (National Center for Advancing Translational Sciences (NCATS), 2012)
Among all 340,000 compounds or so, about 12,000 (3.5%) were called active. This list was built around the results that the source calls inconclusive (neither active nor inactive); the mix of calls is not that of the screen. Calls follow the shape of the dose curve; as a rule, active = well fitted inhibition curve with a large enough effect; inconclusive = small, poorly fitted or top-dose-only effect, or another doubt; inactive = no such curve, though single readings can be large or run the other way. Potencies of inconclusive entries are left out as doubtful fits.

assay: qHTS Assay for Inhibitors of Hepatitis C Virus (HCV); details: Huh7.5.1 HCVcc-Cre (HCVcc is cell-culture hepatitis C virus) infection, luciferase reporter, 44 h; activity change, negative = inhibition: at 41.8 µM (top of the series)
In short: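 1,000 cells/well; 4 h culture; + compound; + HCVcc-Cre (~0.5 moi); 44 h; luciferase substrate, RT 15 min; read 15 sec.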
% is scaled to controls: 0 for no effect and ±100 for the full control effect; potency is read from the fitted curve at half-maximal effect; tags tell the direction and shape of the fitted curve.

With `O=C(CCN1C(=O)c2ccccc2C1=O)Nn1cnnc1` as the compound, how does the “activity change, negative = inhibition” value read?
Its value is inactive: 7.7%.

Which “activity change, negative = inhibition” value does the source give for `Oc1ccc(Br)cc1Cn1nnc2ccccc21` here?
The value was inactive: -7.34%.

Which Potency does the source give for `Cc1cccc(C(=O)N2CCN(c3ccc([N+](=O)[O-])c(NCc4ccco4)c3)CC2)c1` here?
Its Potency is inconclusive [inhibitor, partial curve, poor fit].

With `COC(=O)c1c(NC(=O)C2CC2)sc(C(=O)Nc2ccccc2)c1C` as the compound, how does the Potency read?
Its Potency is inconclusive [inhibitor, partial curve].

For `O=C(C[C@H]1C/C=C\C[C@H](NC(=O)OCC2c3ccccc3-c3ccccc32)C(=O)OC[C@H](Cc2ccccc2)NC1=O)N[C@H](CO)Cc1ccccc1`, which Potency is on record?
The Potency was inconclusive [inhibitor, partial curve].

With `Cc1nc2ccc(NC(=O)c3ccc(S(=O)(=O)N(C)C)cc3)cc2s1` as the compound, how does the Potency read?
Its Potency is inconclusive [inhibitor, single point].

For `O=C(N/N=C/c1ccc(Cl)cc1Cl)c1cccc(N2CCCC2=O)c1`, which Potency is on record?
Its Potency is inconclusive [inhibitor, partial curve].

For `Cc1ccc(C(=O)OCC(=O)NC(C)c2ccccc2)cc1C` (stereo not given), which Potency is on record?
The Potency was inconclusive [inhibitor, full curve, poor fit].

With `C=C1CCC[C@]2(C)C[C@H]3OC(=O)C(CN(C)CC(OC)OC)[C@H]3CC12` (stereo not given in full) as the compound, how does the “activity change, negative = inhibition” value read?
The value was inactive: -22.7%.

For `Cc1cccc(C(=O)N(Cc2nc3ccccc3c(=O)[nH]2)C2CCCC2)c1`, which “activity change, negative = inhibition” value is on record?
The value was inactive: -18%.

With `COc1ccc(-c2csc3ncnc(N4CCN(c5ccc(OC)cc5)CC4)c23)cc1` as the compound, how does the Potency read?
Its Potency is inconclusive [inhibitor, single point].

Which Potency does the source give for `COc1cc2c(cc1NC(=O)CC1SC(N3CCCC3)=NC1=O)oc1ccccc12` (stereo not given) here?
Its Potency is active: 11.2 µM.

With `CC(=O)NC12CC3CC(C1)CC(C(=O)NCc1ccc(C)cc1)(C3)C2` as the compound, how does the “activity change, negative = inhibition” value read?
Its value is inactive: -10.6%.

For `COc1ccc(C2SCCN2S(=O)(=O)c2ccc(NC(C)=O)cc2)cc1` (stereo not given), which Potency is on record?
The Potency was inconclusive [inhibitor, single point].

Which Potency does the source give for `COc1ccc(/C=C2/CCCC(CN(C)C)C2=O)cc1` (stereo not given) here?
The Potency was inconclusive [inhibitor, partial curve].

With `CCOc1cc(S(=O)(=O)n2cc(-c3ccc(F)cc3)c(N)n2)cc(OCC)c1OCC` as the compound, how does the Potency read?
The Potency was active: 6.31 µM.

With `COCCNC(=O)C(c1ccc(F)cc1)N(C(=O)CCC(=O)Nc1nccs1)c1ccc(C)cc1` (stereo not given) as the compound, how does the “activity change, negative = inhibition” value read?
The value was inactive: 8.8%.

Which Potency does the source give for `Cc1ccc(-c2nnn(CC(=O)N(Cc3cccs3)C(C(=O)NC(C)(C)C)c3ccc(C)o3)n2)o1` (stereo not given) here?
The Potency was inconclusive [inhibitor, single point].

For `CC1=C(C(=O)OC2CCCCCCC2)C(c2ccc(O)cc2)NC(=O)N1` (stereo not given), which “activity change, negative = inhibition” value is on record?
Its value is inactive: 20.6%.

For `CC1(C)Cc2c(c(N3CCOCC3)nc3sc(C#N)c(N)c23)CS1`, which Potency is on record?
The Potency was inconclusive [inhibitor, single point].

For `Cc1ccnn1-c1ccc(C(=O)N2CCCN(S(=O)(=O)c3ccc(F)cc3)CC2)cc1`, which “activity change, negative = inhibition” value is on record?
Its value is inactive: 2.7%.

Which “activity change, negative = inhibition” value does the source give for `COc1ccc(C(C(=O)NC2CCCCC2)N(Cc2cccnc2)C(=O)c2snc(C(N)=O)c2N)cc1` (stereo not given) here?
Its value is inactive: -7.06%.

For `Cc1cc(=O)oc2ccc(OCC(=O)N(Cc3ccc(F)cc3)Cc3ccco3)cc12`, which Potency is on record?
The Potency was active: 3.16 µM.

With `Cc1onc(-c2c(Cl)cccc2Cl)c1COC(=O)c1ccc(Cl)cc1[N+](=O)[O-]` as the compound, how does the Potency read?
The Potency was inconclusive [inhibitor, single point].

For `O=C(COC(=O)c1ccc2c(c1[N+](=O)[O-])C(=O)c1ccccc1C2=O)NC1CC1`, which Potency is on record?
Its Potency is inconclusive [inhibitor, single point].

For `Cc1cc2cc(C)c(NCCNC(=O)c3ccccc3Cl)nc2cc1C`, which Potency is on record?
Its Potency is inconclusive [inhibitor, single point].

With `O=C(CN1CCC(NC(=O)Nc2ccc(F)cc2)CC1)Nc1ccccc1[N+](=O)[O-]` as the compound, how does the Potency read?
Its Potency is inconclusive [inhibitor, partial curve].

With `CCCc1cc(NC(=O)CCl)n(-c2ccccc2)n1` as the compound, how does the Potency read?
Its Potency is active: 22.4 µM.

Which “activity change, negative = inhibition” value does the source give for `CCN(CC)CC(=O)c1c[nH]c2ccccc12` here?
The value was inactive: 12.4%.

Which Potency does the source give for `Cn1ccc2cc(OCc3ccccc3)ccc21` here?
The Potency was inconclusive [inhibitor, single point].

With `COc1ccc(CC2(CO)CCN(C(C)Cc3ccc(Cl)cc3)CC2)cc1` (stereo not given) as the compound, how does the Potency read?
The Potency was inconclusive [inhibitor, partial curve].

For `Cc1ccc(/C=C2\C(=O)NC(=O)N(Cc3ccccc3Cl)C2=O)o1`, which “activity change, negative = inhibition” value is on record?
Its value is inactive: -0.266%.

Which Potency does the source give for `Cc1nc(NC(=O)C23CC4CC(CC(C4)C2)C3)sc1Cc1ccc2c(c1)OCO2` here?
The Potency was inconclusive [inhibitor, single point].

For `COc1ccc(-c2cc(CS(=O)(=O)c3ccccc3)on2)cc1`, which “activity change, negative = inhibition” value is on record?
Its value is inactive: -4.86%.

With `COc1cccc(C(=O)OCC(=O)Nc2cc(C)c(C)cc2[N+](=O)[O-])c1` as the compound, how does the “activity change, negative = inhibition” value read?
The value was inactive: 2.93%.

Which “activity change, negative = inhibition” value does the source give for `Nc1nnc(SCC(=O)NNC(=O)c2ccc(F)cc2)s1` here?
Its value is inactive: 0.567%.

Which “activity change, negative = inhibition” value does the source give for `Cc1ccc(CNC(=O)C(OC(=O)c2cccs2)C(C)C)cc1` (stereo not given) here?
Its value is inactive: 8.36%.

Which Potency does the source give for `O=c1[nH]c(-c2ccc(Cl)cc2)cs1` here?
Its Potency is inconclusive [inhibitor, partial curve].

For `O=C(NC(NNc1ccc([N+](=O)[O-])cc1)(C(F)(F)F)C(F)(F)F)c1ccccc1Cl`, which Potency is on record?
Its Potency is inconclusive [inhibitor, partial curve].

Which Potency does the source give for `O=S1(=O)[C@H]2CC3O[C@]2(C[C@@H]3c2ccc(F)cc2)CN1Cc1ccc(Cl)cc1` here?
The Potency was inconclusive [inhibitor, single point].

Which Potency does the source give for `COc1ccc(N(C(=O)C2COc3ccccc3O2)C(C(=O)NC2CCCCC2)c2ccccc2)cc1OC` (stereo not given) here?
Its Potency is inconclusive [inhibitor, partial curve].

Which “activity change, negative = inhibition” value does the source give for `COCCn1cnc2c1c(=O)n(CC(=O)OCC(=O)NCCCc1ccccc1)c(=O)n2Cc1ccccc1` here?
The value was inactive: 2.57%.

For `CCCCCn1c(=O)[nH]c2cc(C(=O)N3CCN(c4ccc(C(C)=O)cc4)CC3)ccc2c1=O`, which Potency is on record?
Its Potency is active: 7.94 µM.

Which Potency does the source give for `Cc1ccc(S(=O)(=O)N(CC(=O)Nc2ccc(Cl)c([N+](=O)[O-])c2)C2CCCCC2)cc1` here?
The Potency was inconclusive [inhibitor, single point].

With `Cc1ccc(C)c(Cn2c3ccccc3c3cnn(CC(=O)NCCCN4CCCCC4)c(=O)c32)c1` as the compound, how does the Potency read?
Its Potency is inconclusive [inhibitor, partial curve].
